Measurements taken from patent EP0183129A1, “Quinolonecarboxylic acid derivatives” (KYORIN PHARMACEUTICAL CO., LTD., priority 1984, dated 1986).
Read-outs that look alike come from different tables or passages of the source.

Tests used:
[1] = Absorption and distribution: concentration in blood and organs after oral administration, bioassay by cup method; assay type: in vivo; conditions: rat, rats, fasted, 10 mg/kg oral, Mean ± S.D. (n=5); for concentration at 0.5 h: 1/2 hr after administration; for concentration at 1 h: 1 hr after administration; for concentration at 2 h: 2 hr after administration; for concentration at 4 h: 4 hr after administration; for concentration at 6 h: 6 hr after administration; for concentration at 8 h: 8 hr after administration
Method: Experiment-4 Absorption, distribution and excretion
The blood, organs, bile and urine of the fasted rats, which had received the dose of 10 mg/kg of the test compound by oral administration, were sampled over a period of time and the proportion of active compound was determined bacteriologically by the cup method using E. coli NIHJ JC-2. All those results make it possible to guarantee a greater therapeutic action of the present compound than that of the reference compound because of higher concentration of active compound in comparition with the reference compound.

[2] = Urinary and bile excretion after oral administration, bioassay by cup method; assay type: in vivo; conditions: rat, fasted rats, 10 mg/kg oral, Mean ± S.D. (n=5)
[3] = kidney, read-out: Concentration in organs: Kidney
[4] = liver, read-out: Concentration in organs: Liver
[5] = lung, read-out: Concentration in organs: Lung
[6] = serum, read-out: Concentration in organs: Serum

Work on `O=C(O)c1cn(C2CC2)c2cc(N3CCNCC3)c(F)cc2c1=O` [CFLX, Ciprofloxacin, reference compound] yielded a concentration at 0.5 h [1, 3] of 3580 ± 2610 ng/g, a concentration at 1 h [1, 3] of 2050 ± 640 ng/g and a concentration at 2 h [1, 3] of 1120 ± 340 ng/g. For the same molecule, the concentration at 4 h [1, 3] was 210 ± 20 ng/g, the concentration at 6 h [1, 3] was 100 ± 40 ng/g and the concentration at 8 h [1, 3] was 60 ± 20 ng/g. It also gave a concentration at 0.5 h [1, 4] of 5170 ± 2530 ng/g, a concentration at 1 h [1, 4] of 3280 ± 980 ng/g and a concentration at 2 h [1, 4] of 1490 ± 370 ng/g. It also gave a concentration at 4 h [1, 4] of 390 ± 50 ng/g, a concentration at 6 h [1, 4] of 210 ± 110 ng/g and a concentration at 8 h [1, 4] of 150 ± 50 ng/g. The concentration at 0.5 h [1, 5] was 860 ± 580 ng/g, the concentration at 1 h [1, 5] was 600 ± 190 ng/g and the concentration at 2 h [1, 5] was 290 ± 20 ng/g. It also gave a concentration at 4 h [1, 5] of 140 ± 20 ng/g, a concentration at 6 h [1, 5] of 70 ± 30 ng/g and a concentration at 8 h [1, 5] of 60 ± 10 ng/g. It also gave a concentration at 0.5 h [1, 6] of 470 ± 280 ng/mL, a concentration at 1 h [1, 6] of 380 ± 110 ng/mL and a concentration at 2 h [1, 6] of 250 ± 50 ng/mL. It also gave a concentration at 4 h [1, 6] of 90 ± 30 ng/mL, a concentration at 6 h [1, 6] of 50 ± 10 ng/mL and a concentration at 8 h [1, 6] of 30 ± 10 ng/mL. The concentration at 3 h ([2]; bile 0 ~ 3 hr, read-out: Concentration, bile) was 11100 ± 4400 ng/mL, the dose excreted at 3 h ([2]; bile 0 ~ 3 hr, read-out: Recovery, bile) was 1.3 ± 0.7% and the dose excreted at 24 h ([2]; bile 0 ~ 24 hr, read-out: Recovery, bile) was 2.5 ± 0.8%. It also gave a concentration at 6 h ([2]; bile 3 ~ 6 hr, read-out: Concentration, bile) of 5900 ± 2600 ng/mL, a concentration at 24 h ([2]; bile 6 ~ 24 hr, read-out: Concentration, bile) of 1500 ± 600 ng/mL and a concentration at 3 h ([2]; urine 0 ~ 3 hr, read-out: Concentration, urine) of 101000 ± 36000 ng/mL. The dose excreted at 3 h ([2]; urine 0 ~ 3 hr, read-out: Recovery, urine) was 3.9 ± 2.9%, the dose excreted at 24 h ([2]; urine 0 ~ 24 hr, read-out: Recovery, urine) was 8.9 ± 1.8% and the concentration at 6 h ([2]; urine 3 ~ 6 hr, read-out: Concentration, urine) was 57000 ± 19000 ng/mL. For the same molecule, the concentration at 24 h ([2]; urine 6 ~ 24 hr, read-out: Concentration, urine) was 12000 ± 6000 ng/mL.
